The results in this text go back to the RNAGym collection of RNA variant scans (doi:10.7554/elife.90254).

Read counts are not given, so values of variants with three or more changes are uncertain.

Sequences and labels used below:
B1: LINE1-full (parent)
chain: UACGUAGGUGGUUUUCCCCUGAUAGUGCUAAGGGGGCCUGGAAGUUUGGACUGGGCAGAGCUCAACACAGCGUGGCAAAGUGGCUGUGGCUAGACUGCCUCUCUGGAUUCCUCGUCACUCAGCAGGGCAUCUCUGAGAGAAAUGCC

Variants of B1 are the subject of this data set. The experiment in a line: self-cleavage, relative activity (ratio to wild type); higher = more cleavage; in vitro, sequencing; the parent is a self-cleaving ribozyme.
Take A43G U73A U112C: the self-cleavage is 1.23.
The same measure for U45C U119C U134C: 1.15.
With U45A A64G U73C A117U U132C U143C, the self-cleavage was 1.06.
The same measure for A43G A64U U100C: 0.93; for A43G A67G G88U U112A: 0.07; for U45C U46C A64G G74A: 0.16.
The same measure for U45C U85A A124U A129G: 0.12.
On to U45A G72A U85A, for which the self-cleavage is 0.04.
The same measure for U46A A50G A138G: 2.9; for U46A A67U U85C U108A U112C: 0.03; for U45C A59U C99U A129U: 0.33.
A43U U45A A77U: the self-cleavage was 0.8.
U45G A64U A121G: the self-cleavage is 0.27.
As for A43G U96A U109C, the self-cleavage came out at 0.08.
Then A43G U45C A50G, with 0.77; and U45C U62G A140G, with 0.37; and A43G A94U A140G, with 0.16.
The same measure for A43G G86C A136G: 0.
G44A U52C A57U C63A C146U: the self-cleavage turned out to be 0.04.
Then U45C A94U U143C, with 0.19; and U45C U91A A129C, with 0.95.
Then A43G U104G G105U, with 0.98; and A43G U102C G126U A138G, with 1.97; and A43G G97A U112C, with 0.12.
The same measure for A43G U73G A140G: 1.23; for U46C A67U U96C: 0.07.
As to A43C A77G U115C, the self-cleavage was 1.31.
Take A43G U85C A94G: the self-cleavage amounted to 0.
The same measure for A43G G70U G114A: 0.02.
As to U46A A78C U91C, the self-cleavage was 0.3.
The same measure for U45C U96A U112C: 0.04; for U45C G48A A69G U119C: 0.16.
The same measure for U46A A78U U87G: 0.26; for A43U U91C U130C A138G U143A: 0.92.
Then A43U U100C A117G, with 0.99; and A43G U52G A59G A138G, with 1.84.
With U45C A65G A94G, the self-cleavage is 0.
The same measure for U46C A77U U112C G139U: 1.39.
Then A43G U112C U130A, with 1.69; and U45C A65G G88A, with 0.05; and A43G U85C U109C G125U, with 0.36.
The same measure for A43U A67U C71A: 0.03; for G44A U47A U115C A141G: 0.54; for G44A A77U U91C U130C: 0.56.
Consider U45A U91C U134C, for which the self-cleavage is 0.68.
The same measure for U45C U73A A77G A79G: 1.84.
As to A43G U62A A78G, the self-cleavage stood at 0.06.
In the case of A43U U81C U102A, the self-cleavage was determined as 1.31.
The same measure for A43G U115C A140G: 1.84; for A43G A50U A138G: 0.56.
Then A43G C113U A136G, with 1.01.
For U46C A65G A117U A121G, the self-cleavage was 0.06.
As for U46C A57C A69U C84A, the self-cleavage was 0.05.
The same measure for A43U U100C U108C: 1.84; for A43G A78G U134C: 1.6.
As for A43G C51U A69G, the self-cleavage came to 1.23.
Then U46A A77G U104C, with 2.1.
In the case of U45C A79G A107G A129U, the self-cleavage turned out to be 0.
For U45A A92G A136G, the self-cleavage is 0.07.
Then A43G A59U U115A U143C, with 0.81; and U46C A59U U73A U102A U108C, with 1.18; and A43G A69G A77U, with 0.
On to U45A U47A A141G A142G, for which the self-cleavage turned out to be 1.04.
Regarding A43G U81A G114A A138G, the self-cleavage came to 1.53.
The same measure for U46C A65U U108C: 0.14.
Then A43G U81A U96G, with 0.12.
The same measure for U45C U96G A129G: 0; for U45C A69U A140G: 0.06; for A43U U112C A142G: 1.87.
Consider U46A G54A A57G A65U, for which the self-cleavage was 0.02.
With G44A C110A A121G, the self-cleavage is 1.47.
In the case of U45C U81A U115C U119A, the self-cleavage is 2.19.
The same measure for U45C U104C A129U: 1.78; for A43G U109C A142G: 1.92; for U46A G54C A67U A77G A138G: 0.04.
Then U45A C76U C146U, with 2.43; and A43G C66U U73C A94U A107G, with 0.09.
Consider U45C A92U A124G, for which the self-cleavage worked out at 0.56.
The same measure for A43G U45G U52A G126U: 1.39; for A43U U81C C110A: 1.05.
For U45A U81G U108C A136G, the self-cleavage is 1.84.
Then G44A U45G U134C, with 1.61.
The same measure for U46C A92U A142G: 0.31.
Then A43U A65U U96C, with 0.12.
As for A43G C63U A79C U119A, the self-cleavage turned out to be 0.43.
Regarding U45C A50G A69U G126A A138G, the self-cleavage came out at 0.11.
Then U45A A67U U87A C133A, with 1.1; and A43U U46C A138U, with 1.12.
Regarding U45C U100C A140G U143A, the self-cleavage turned out to be 2.69.
The same measure for U46A A77U A129G A136U: 1.27; for A43G U73A A138G A142G: 1.27; for U45C A94U A141G: 0.48.
Take U45C U73G G83A U91A: the self-cleavage was 0.08.
Then A43U A50G A78G G137U A138G, with 0.55.
As for U45C A138C A142G, the self-cleavage was found to be 0.74.
The same measure for A43G U45A A59G: 0.1; for U45G A92U U108C A136G: 0.93; for U45A U46G U62C U112A: 0.
As to U45A A79G U134A, the self-cleavage amounted to 0.88.
Then U45C A69C G97U G127A, with 0; and U45A A77G U87A U100G A136U, with 0.08; and A43G U62A U73A C95U U143C, with 0.03.
Take U45G A138G A141G: the self-cleavage worked out at 1.67.
The same measure for U46A G74A G86U: 0.07; for A43G U102A A117U U143G: 1.7.
Regarding A43U U45C U134C U143C, the self-cleavage was determined as 0.
Then A43G U47C A121G G126A, with 1.35; and A43G U100C U130C, with 2.51.
Then U45C U85C C90U, with 0.09; and U45C G53A U87A U96C U104A, with 0.1; and A43G G49U A67G, with 0.1.
Then U45C A57U U91C, with 0.05; and U46A U73A A94G G135U, with 0.38; and U45C U73C U132C A140U, with 2.3.
Take U45C A50U A79G: the self-cleavage worked out at 0.81.
As for A43G U73C U104A U132C, the self-cleavage turned out to be 0.95.
On to G44U A79G C90U, for which the self-cleavage came out at 0.03.
Consider A43G A69G U91A, for which the self-cleavage is 0.
The same measure for U45C A57G A67U: 0.17; for U45A A69G U109C: 0.84; for A43G U119C A142G: 1.36.
On to A43G U85C U132A, for which the self-cleavage came to 0.12.
The same measure for U45G U96G U109C A136G G144A: 0; for A43G U104A U119C: 0.42.
For A43G U87C U115C, the self-cleavage came out at 0.
The same measure for A43G U73C U134C: 1.79; for U45C A59G A79G U134G: 0.
For the variant A43G A79U C98U A142G, the self-cleavage turned out to be 0.58.
Regarding U45C A79G C99U A140G, the self-cleavage came out at 0.42.
Then U45G A50G C84U, with 0.14; and A43G G44A A136G, with 0.52; and U46A A64U A77U G83U U119C A136G U143C, with 0.25.
On to A43G A77G A94G, for which the self-cleavage turned out to be 1.31.
A43U A57G G60U U130C: the self-cleavage was determined as 0.01.
The same measure for A43G G83C A136U: 0.89; for U45C G83A A140G: 0.64; for U45C U85G G89A: 0.05.
Then A43G A79U U81A A140G, with 2.65; and U46A U100A U134A, with 1.04; and U46A U115G C123A, with 1.37.
The same measure for U45C U96A G126A: 0.02.
As to U45C U62C U119A A140G, the self-cleavage was 0.1.
Then A43G U45C U132C, with 0.31; and U46A A65G U130C A138G, with 0.14; and A43C A78G U100A C123A U134G A141G, with 0.
The same measure for U45C A78G A117U: 1.12.
For A43G A79U U96A, the self-cleavage came to 0.09.
Then A43G U81A U132C, with 2.12; and U45C A64U G80A A141G U143A, with 0.76; and U45C U62C U109C A138U, with 0.16.
Then U45C G97U U100C, with 0.13.
A43G A65C A92U U109C C113U: the self-cleavage was determined as 0.16.
With U46C A64G U104A, the self-cleavage is 0.15.
For U46C A77G U119C, the self-cleavage came out at 1.64.
The same measure for U45C A67U U81C A94G C113A: 0; for A43G A50G U87A: 0.
The same measure for U45A U134C A136G: 1.56.
U45A G105C A121G: the self-cleavage was 2.36.
The same measure for U45C U91C U96C: 0; for A43U U62C A142G: 0.11.
The same measure for A43G U52A A142G: 1.46.
With U45C A50G U85A U112A U115A, the self-cleavage came out at 0.
The same measure for A43G U45C C56U U96C: 0.06.
Then U46C A64C A140G, with 0.3.
In the case of U46C A57U A78G G126A C128U, the self-cleavage is 0.14.
A43U A67U U73C A94G U130C: the self-cleavage was determined as 0.
In the case of U45A A50U A64U A65U C113U, the self-cleavage was 0.03.
